{"source": "patent US20040110933A1", "binders": {"B1": {"name": "HAE-H10 Fab (Fab, V domains shown)", "VH": "EVQLLESGGGLVQPGGSLRLSCAASGFTFSPYLMSWVRQAPGKGLEWVSSIYSSGGLTDYADSVKGRFTISRDNSKNTLYLQMNSLRAEDTAVHYCARDGYYDSSGYEGFDYWGQGTLVTVSS", "VL": "[about 100 residues left out here]FGQGTKLEIK"}}, "key": {"[1]": {"target": "human CD44 expressed on human cells (KG1a, SR91, HMEC, HUVEC, primary leukocytes) (human) (UniProt P16070)", "test": "flow cytometry, KG1a-HA+ cells, Fab […]"}, "[2]": {"target": "human CD44 expressed on human cells (KG1a, SR91, HMEC, HUVEC, primary leukocytes) (human) (UniProt P16070)", "test": "flow cytometry, KG1a-HA+ cells, Fab 20 µg/mL"}, "[3]": {"target": "human CD44 expressed on human cells (KG1a, SR91, HMEC, HUVEC, primary leukocytes) (human) (UniProt P16070)", "test": "displacement of FL-HA, KG1a-HA- cells, Fab 1 mg/mL"}, "[4]": {"target": "human CD44 expressed on human cells (KG1a, SR91, HMEC, HUVEC, primary leukocytes) (human) (UniProt P16070)", "test": "flow cytometry, KG1a-HA+ cells, Fab 10 µg/mL"}, "[5]": {"target": "human CD44 expressed on human cells (KG1a, SR91, HMEC, HUVEC, primary leukocytes) (human) (UniProt P16070)", "test": "flow cytometry, CD44+ cells, Fab 50 µg/mL, 9E10 + GxM FITC detection (background 29)"}, "[6]": {"target": "human CD44 expressed on human cells (KG1a, SR91, HMEC, HUVEC, primary leukocytes) (human) (UniProt P16070)", "test": "displacement of FL-HA, KG1a-HA- cells, Fab 500 µg/mL"}, "[7]": {"target": "human CD44 expressed on human cells (KG1a, SR91, HMEC, HUVEC, primary leukocytes) (human) (UniProt P16070)", "test": "flow cytometry, KG1a-HA+ cells, Fab 1 mg/mL"}, "[8]": {"target": "human CD44 expressed on human cells (KG1a, SR91, HMEC, HUVEC, primary leukocytes) (human) (UniProt P16070)", "test": "flow cytometry, KG1a-HA- cells, Fab 1 mg/mL"}, "[9]": {"target": "human CD44 expressed on human cells (KG1a, SR91, HMEC, HUVEC, primary leukocytes) (human) (UniProt P16070)", "test": "FL-HA binding to cells in presence of Fab 50 µg/mL, flow cytometry; HA alone 161"}, "[10]": {"target": "human CD44 expressed on human cells (KG1a, SR91, HMEC, HUVEC, primary leukocytes) (human) (UniProt P16070)", "test": "flow cytometry, KG1a-HA- cells, Fab 250 µg/mL"}, "[11]": {"target": "human CD44 expressed on human cells (KG1a, SR91, HMEC, HUVEC, primary leukocytes) (human) (UniProt P16070)", "test": "flow cytometry, CD44+ cells, Fab 100 µg/mL, 9E10 + GxM FITC detection (background 29)"}, "[12]": {"target": "human CD44 expressed on human cells (KG1a, SR91, HMEC, HUVEC, primary leukocytes) (human) (UniProt P16070)", "test": "displacement of FL-HA from KG1a cells, Fab above 250 µg/mL"}, "[13]": {"target": "human CD44 expressed on human cells (KG1a, SR91, HMEC, HUVEC, primary leukocytes) (human) (UniProt P16070)", "test": "FL-HA binding to cells in presence of Fab 25 µg/mL, flow cytometry; HA alone 161"}, "[14]": {"target": "human CD44 expressed on human cells (KG1a, SR91, HMEC, HUVEC, primary leukocytes) (human) (UniProt P16070)", "test": "FL-HA binding to cells in presence of Fab 100 µg/mL, flow cytometry; HA alone 161"}, "[15]": {"target": "human CD44 expressed on human cells (KG1a, SR91, HMEC, HUVEC, primary leukocytes) (human) (UniProt P16070)", "test": "flow cytometry, SR91 cells, Fab 10 µg/mL"}, "[16]": {"target": "human CD44 expressed on human cells (KG1a, SR91, HMEC, HUVEC, primary leukocytes) (human) (UniProt P16070)", "test": "flow cytometry, KG1a-HA+ cells, Fab 50 µg/mL, anti-6His + GxM-FITC (background 6)"}, "[17]": {"target": "human CD44 expressed on human cells (KG1a, SR91, HMEC, HUVEC, primary leukocytes) (human) (UniProt P16070)", "test": "flow cytometry, KG1a-HA+ cells, Fab 20 µg/mL, anti-6His + GxM-FITC (background 6)"}, "[18]": {"target": "human CD44 expressed on human cells (KG1a, SR91, HMEC, HUVEC, primary leukocytes) (human) (UniProt P16070)", "test": "displacement of FL-HA from KG1a cells, flow cytometry, Fab at 0.1-1 µg/mL"}, "[19]": {"target": "human CD44 expressed on human cells (KG1a, SR91, HMEC, HUVEC, primary leukocytes) (human) (UniProt P16070)", "test": "flow cytometry, KG1a-HA+ cells, Fab 250 µg/mL"}, "[20]": {"target": "neuraminidase-treated (activated) human CD44-Fc (human) (UniProt P16070)", "test": "BIACORE (SPR)"}, "human CD44-Fc (human)": {"target": "human CD44-Fc (human) (UniProt P16070)", "test": "BIACORE (SPR)"}, "[21]": {"target": "human CD44 expressed on human cells (KG1a, SR91, HMEC, HUVEC, primary leukocytes) (human) (UniProt P16070)", "test": "flow cytometry, KG1a-HA- cells, Fab 20 µg/mL, anti-6His + GxM-FITC (background 6)"}, "[22]": {"target": "human CD44 expressed on human cells (KG1a, SR91, HMEC, HUVEC, primary leukocytes) (human) (UniProt P16070)", "test": "displacement of FL-HA, KG1a-HA+ cells, Fab 250 µg/mL"}, "[23]": {"target": "human CD44 expressed on human cells (KG1a, SR91, HMEC, HUVEC, primary leukocytes) (human) (UniProt P16070)", "test": "displacement of FL-HA, KG1a-HA+ cells, Fab 1 mg/mL"}, "[24]": {"target": "human CD44 expressed on human cells (KG1a, SR91, HMEC, HUVEC, primary leukocytes) (human) (UniProt P16070)", "test": "flow cytometry, KG1a-HA+ cells, Fab 500 µg/mL"}, "[25]": {"target": "human CD44 expressed on human cells (KG1a, SR91, HMEC, HUVEC, primary leukocytes) (human) (UniProt P16070)", "test": "flow cytometry, KG1a-HA+ cells, Fab 100 µg/mL, anti-6His + GxM-FITC (background 6)"}}, "data": [{"binder": "B1", "values": [{"measurement": "fluorescence (Binding Titration) (arbitrary fluorescence units)", "setting": "[1]", "result": 65}, {"measurement": "FL counts (arbitrary units)", "setting": "[2]", "result": 3.46}, {"measurement": "% inhibition of HA binding", "setting": "[3]", "result": 47.7, "unit": "%"}, {"measurement": "FL counts (arbitrary units)", "setting": "[4]", "result": 2.88}, {"measurement": "FL counts (arbitrary units)", "setting": "[5]", "result": 30}, {"measurement": "% inhibition of HA binding", "setting": "[6]", "result": 54.4, "unit": "%"}, {"measurement": "fluorescence (Binding Titration) (arbitrary fluorescence units)", "setting": "[7]", "result": 176}, {"measurement": "fluorescence (Binding Titration) (arbitrary fluorescence units)", "setting": "[8]", "result": 117}, {"measurement": "FL-HA signal remaining with antibody (HA Blocking)", "setting": "[9]", "result": 185}, {"measurement": "fluorescence (Binding Titration) (arbitrary fluorescence units)", "setting": "[10]", "result": 74}, {"measurement": "FL counts (arbitrary units)", "setting": "[11]", "result": 32}, {"measurement": "% inhibition of HA binding", "setting": "[12]", "result": 60, "unit": "%"}, {"measurement": "FL-HA signal remaining with antibody (HA Blocking)", "setting": "[13]", "result": 198}, {"measurement": "FL-HA signal remaining with antibody (HA Blocking)", "setting": "[14]", "result": 145}, {"measurement": "FL counts (arbitrary units)", "setting": "[15]", "result": 2.2}, {"measurement": "fluorescence (Fab Binding)", "setting": "[16]", "result": 12}, {"measurement": "fluorescence (Fab Binding)", "setting": "[17]", "result": 9}, {"measurement": "% inhibition of HA binding", "setting": "[18]", "result": 16, "unit": "%"}, {"measurement": "fluorescence (Binding Titration) (arbitrary fluorescence units)", "setting": "[19]", "result": 92}, {"measurement": "Kd", "setting": "[20]", "result": 388, "unit": "nM"}, {"measurement": "Kd", "setting": "human CD44-Fc (human)", "result": 487, "unit": "nM"}, {"measurement": "fluorescence (Fab Binding)", "setting": "[21]", "result": 7}, {"measurement": "% inhibition of HA binding", "setting": "[22]", "result": 48.6, "unit": "%"}, {"measurement": "% inhibition of HA binding", "setting": "[23]", "result": 65.4, "unit": "%"}, {"measurement": "fluorescence (Binding Titration) (arbitrary fluorescence units)", "setting": "[24]", "result": 106}, {"measurement": "fluorescence (Fab Binding)", "setting": "[25]", "result": 39}]}]}
